Results: the supplement of paper PMC10681739
± gives the standard deviation of the averaged measurements. In all, about 4,000 sequences were measured (“arbitrary fluorescence units”: median about 830, highest 2% from about 6,500 on). This part holds few or none of the hits.

The sequences below were run against RUNX1 (UniProt Q01196) (assay: RUNX1 binding intensity (PBM fluorescence), RUNX1 alone (arbitrary fluorescence units); higher = stronger binding). Conditions: RUNX1 concentration 2 nM; ETS1 concentration 0 nM.
Sequence of UniProt Q01196 (Q01196 whole entry): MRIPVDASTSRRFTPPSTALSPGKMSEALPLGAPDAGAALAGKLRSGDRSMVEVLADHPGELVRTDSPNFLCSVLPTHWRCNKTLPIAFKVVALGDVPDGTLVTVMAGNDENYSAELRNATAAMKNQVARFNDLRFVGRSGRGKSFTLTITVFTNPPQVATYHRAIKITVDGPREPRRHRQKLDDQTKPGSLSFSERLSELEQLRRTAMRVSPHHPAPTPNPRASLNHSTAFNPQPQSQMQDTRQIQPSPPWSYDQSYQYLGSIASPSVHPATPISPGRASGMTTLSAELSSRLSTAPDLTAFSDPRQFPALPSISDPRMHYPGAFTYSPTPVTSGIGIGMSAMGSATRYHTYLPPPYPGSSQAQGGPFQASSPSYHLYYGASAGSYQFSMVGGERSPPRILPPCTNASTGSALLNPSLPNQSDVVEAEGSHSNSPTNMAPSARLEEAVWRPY
Description: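 gcPBM on 36-bp genomic-derived probes (partner site mutated) containing one RUNX1 site and no ETS1 site. Recombinant human RUNX1 (2 nM) was incubated alone or with ETS1 (25 nM) and detected by anti-RUNX1 antibody fluorescence. Values are medians over 4 replicate spots (not normalised). The probes sit in constant array flanks that are not printed.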
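Further: Full-length recombinant human RUNX1 bound to double-stranded DNA microarray spots, detected with an Alexa488-labelled secondary antibody after the anti-RUNX1 primary, read as scanned spot fluorescence.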

| Sequence | RUNX1 binding intensity |
| --- | --- |
| GCGCCGCCCACAGCCGATCGACATGTCCCAGAATCA | 768 |
| GCGCCCCGTCCTTGCGCAGCCCAACCGCCTCTTCCC | 1190 |
| TGTCAGTCTGTGGTTGGGCAGGCAGTGGCTGGGCAG | 1050 |
| CAAAACCACTTGGCAGCTGAGTCAACACCCTGCCTG | 743 |
| TCGGCTCGCGGTGGGAGCGCCTGAAGCCCGCCCCAC | 784 |
| CGAACTACGTCCTCTGAGGTGTGGCTTTTTGGCCTG | 777 |
| CTGGGCCTCCTCTTCAGGCATGCGCGGTGGACCTGC | 662 |
| CTGACAGCCTCCGCACAAAGCGCGGTCTATTTCTCC | 918 |
| AGCGTACGGTCGCGCCGCGCTCTAGCACCGCAGCAC | 798 |
| GCCCCGGTGGTTTTGAACTCCCGCCAACCTCCCTTT | 1170 |
| CGAGGTGACCACTCTCCTCGGCAGCCGCACCTGCCC | 974 |
| ACCACCCCCCGTCTCCTCCGAAGTGGTTGGTGCCTT | 921 |
| GCAAGATCCCGCATTAACATCTCGGGAACGGACAGC | 939 |
| TAGGCTGAAAGCCCGCTAGCCTAAACCACAGAGGGT | 798 |
| GTCCTTTCTGTGTGTTACTCTTAAAAACCACAGAGG | 1310 |
| TGGATGGCGGCGGAGACTGCCCATGCCGCAAGGCCG | 658 |
| GTCGGGAGGTAGGCGGGGTGACGTGTGGTTGACGAG | 1020 |
| TCCTGTTTACCACCCAGCCTCTTGCTCCCGTGCCCA | 1410 |
| TCCAGCCCCACCGTAAGTGGATGTGGTTAATCTAGT | 866 |
| GGGCCTAAGCCTGTGGTTAGACTTCATGTCAATGAG | 1190 |
| GTAACTGAAACCACAGCAAGCGGCACTGTAGGTAAG | 1250 |

| Sequence | RUNX1 binding intensity |
| --- | --- |
| TTGTTCGCTGCGGCGACCAGCTCCGAAAAGCGCGGC | 736 |
| GCCACAGCCTGAAGCAGGCTGACCACAAGTGCTAAG | 993 |
| GAAGAGAAAGGCAACGGCTCGCGGTTTCTGGGGTTC | 1050 |
| AGGGAACAGCAAATGCAAAAAACCACAAGGGACAAG | 1520 |
| GCGATCGGAGCGGCAGTGGAGCTACCGCCACCGCCG | 838 |
| CTAGTTTCATGTGGCTGCTATGACAAATGACCACAG | 766 |
| ATGCTCGCAGTAAACCACAGTCATCCAGTTTCTTTA | 1240 |
| TGGAAGCTGCGGCCGCCTCGCACCCTGAACAACAAA | 797 |
| GCCTTGCGCCGTCTGCTAGGCGTGTCGCCGCAGGAG | 720 |
| CCCCCACACCCTGTTTGGTTTGTGGGACACCTCAAC | 895 |
| TTACAATCATGTCCTCTCTGTGGTTTGGTGACAAAT | 1440 |
| CTGTGGTCATTTGTCATAGCAGCCACATGAAACTAG | 780 |
| AGCGCTTGCTGGCTCCGGCCCCGCCCCTGCGGTCGG | 790 |
| TGGGTGCTGCGGGCCAAGCTTTCCCTTCGTTTGAGA | 722 |
| GGCCAGGCGCTGCGGGCAGTCATTGCCTTAGCAACT | 687 |
| TGCCACCTCCGCCATCTTGAAACAACCGCCACTCGG | 1120 ± 28 |
| CCTCTGCCAAAACCACCATCCACTTGCCCACCCAAC | 3380 |
| TACTTAGAGGCAATGTGGCCTGTGGTCTTGTCTCAC | 761 |
| AAAAAATGGAGGACGTTACCTCCAGTGGTTTTGTGA | 766 |
| GCAGTCAGGCCCACATTCCTCTTACCTCCCGCCATT | 1270 |
| CATGACCTCCTCGCACAAGAATGCGGGGGTGGGGGT | 1050 |

| Sequence | RUNX1 binding intensity |
| --- | --- |
| GCCGCCGCAGATTCGACACAAAACCCTGAAGGACCC | 962 |
| CGGAGGCGCGGTTTCCAAGCACGGCAACCTTCAGCC | 884 |
| GGGTGCTGCCTATAAACAATGACTCATTACCGCACT | 839 |
| CGTCCTGTGCTGCGGGCTCAGGCGCAACCCTGAACG | 815 |
| ACGGAGCTGTGGTTTAACGTTTCAGGTTAGTGGCTA | 1330 |
| AGGGAAACCACGGAATTTACTGCCGAAAGTTCGGCG | 825 |
| GCTTTGCAGTGTCCTCTGTGGAACACCACACACAGT | 803 |
| AACCCGAAACCCCACAGACCAGCCGGGAGTCCGGTC | 820 |
| GTCCCCTGGAACCGTCTCCTCCCCCGCACGCGCCGC | 911 |
| AACTGGATTGACCACATGGAGGAGATGGGAGGAGGC | 985 |
| GAGCACATTGCCTTTTGCTTCCAGATACCACAGTGA | 945 |
| ACAGACAGCAGCCTGAGCTCGTGGTTAGAACACCCT | 796 |
| GACAAAGCAACCGCCAGGCAGATCCCGGGAGCCGCC | 751 |
| AGGCGCTGTGGGGATGGTGAGGACGCTATCAGGGGC | 701 |
| TGATGTAAACTGGACCAGCCGCTGCGGGCAAAGGAG | 739 |
| CCTACCACTGCGGGCAGCGCTTGCGCTTTCCTCCTC | 1050 |
| GCAGAAACAGAAAGAGACAGGGCTGACCGCAGCAGG | 1360 |
| GGTTCAGCCCCAGCAAGATCAGACCACAGAAGCGGA | 826 |
| TGACGTCATCCCGCAGCGCCGGGAGCGGTGAGGCAC | 752 |
| CACCTCACAGCCTGGATACAAACCGCCTACCCGCCC | 1300 |
| CTGCCTTTGCTGCTAGGGTACAAACCACAGCCTTAG | 1040 |
